From the supplement of paper PMC11417369
± gives the standard deviation of the averaged measurements. The list shows a part of the results.

Each sequence was assayed on PfAP2-EXP AP2 domain (GST-tagged) (assay: gcPBM binding intensity (ln(normalized median fluorescence intensity)); higher = stronger DNA binding).
In short: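 Binding of GST-tagged P. falciparum DNA-binding domains, expressed in E. coli and used at about 25 μg on average, was carried out for 1 h in 1× PBS containing 1% milk, 0.2 mg/ml BSA, 0.5% salmon testes DNA and 0.03% Triton X-100. The target was an Agilent 4 × 180k array of primer-extended double-stranded 36-bp intergenic genomic probes plus negative controls, read with Alexa488 anti-GST antibody at 488 nm. Binding intensity is the highest Masliner-normalised natural-log median intensity across replicate spots of either probe orientation.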

Row | Sequence | gcPBM binding intensity (ln)
1 | ACTGTCGTTTTAAAGAGTACATAAAATATTAAATTA [XGTACX_site3589] | 8.29 ± 0.23
2 | ATGTCTTTGAAAAAAAGTACTTAAAATTATAAAAAT [XGTACX_site147] | 8.66 ± 0.28
3 | AAAACTATTAATGCAAAAAATAAAATATAATAATAA [XGTACX_negctrl_site524] | 8.57 ± 0.35
4 | AATTAAAAAATTATCACACATATATATATATATATA [CACACA_site5789] | 10.3 ± 0.52
5 | TCAAAGCACAGATACACACACATATATATATATATA [CACACA_site287] | 10 ± 0.42
6 | TAAGGTTCATTAAAGTGTACACATAAATACCGTAAC [XGTACX_site8212] | 9.06 ± 0.27
7 | TGTAATAATTATTGCACGCACACAAAAACCTATAGA [CACACA_site2932] | 8.94 ± 0.3
8 | ATTCTGAATGTTATGCGTACATATTAATCCTATTTA [XGTACX_site1216] | 8.63 ± 0.28
9 | AAGTAAATATAATAAGGTACACATAAATAAATAAAT [XGTACX_site1740] | 8.89 ± 0.57
10 | GGAAACACGATATATACACACATATTTATATTTATA [CACACA_site6250] | 8.57 ± 0.28
11 | AGAAAAGGAAAATAAACATGCAAAAATAATATTAAA [TGCATGCA_site337] | 9.1 ± 0.28
12 | TCCAAATAAATATATTGTACAGAATTATTGATACCT [XGTACX_site327] | 8.27 ± 0.33
13 | ATGTTGTTATAAAGAGTGCAACGTATATGTATCCTT [GTGCAC_site9935] | 8.71 ± 0.18
14 | TAAACATTGTAAAGGAGTACAAAATTTTTTTTATGA [XGTACX_site7757] | 8.37 ± 0.45
15 | AATAATAAAAAATACACACACATATATATATATTAC [CACACA_site3464] | 8.71 ± 0.4
16 | TTTTTTTTTTTGTATCGTACATTTATAATGTTTATA [XGTACX_site6804] | 8.61 ± 0.54
17 | AACATACAGAAACACACACACACACCCACACCCACA [CACACA_site493] | 8.63 ± 0.55
18 | TCTTACAAAAAACAAACAGAGAAAAATATAAGGAAA [XGTACX_negctrl_site520] | 8.91 ± 0.47
19 | CATACACAAGAAAATTCACACACACCCATATATATA [CACACA_site9288] | 8.88 ± 0.22
20 | TTTTTTTCATATAACACACACACAAAAATAATGTGG [CACACA_site3688] | 8.44 ± 0.4
21 | TTGTTATAGAAGCATTCACACACACCCATACATACA [CACACA_site8414] | 8.95 ± 0.35
22 | ATATATATATATCATAGTACACATATGTGTCTCGTG [XGTACX_site774] | 9.74 ± 0.21

Row | Sequence | gcPBM binding intensity (ln)
23 | AAGTTAACAATATGAAGTACAAATGAAAAAAAAAAA [XGTACX_site666] | 8.93 ± 0.23
24 | ATATATATTTATTTATGTACGAATAAATTTACGAAT [XGTACX_site5190] | 8.45 ± 0.35
25 | TTAATAGGTCGAAGTAGTACATAAAAATATATATAT [XGTACX_site5960] | 9.265 ± 0.078
26 | AATATCATTATATAAGTGCATTTTTTAAAAGATAAA [GTGCAC_site9479] | 8.36 ± 0.2
27 | TTTAATTTGTTATACACACACAAAAAAAATTATAAA [CACACA_site3937] | 8.46 ± 0.49
28 | ATTCTATATTTAAATGCATGCACTTTCTATTTTTTT [TGCATGCA_site435] | 10.6 ± 0.52
29 | GCTAAAAGTATATGCACACACATATAGATGCACATA [CACACA_site6868] | 8.57 ± 0.14
30 | GACACTTTGAAGGGTACATGCAGAAAAAAAAAAAAA [TGCATGCA_site89] | 8.96 ± 0.43
31 | TTTTATTTATCTAATTGTACTCATTCTTTTTTGATG [XGTACX_site2876] | 8.335 ± 0.007
32 | TTTTAAAAAAAAAAAAAAAAAATTAAAATAATTCAA [TGCATGCA_negctrl_site69] | 7.61 ± 0.36
33 | ATAAAATAATTAATGGGTACATAATTAAATAAAGAG [XGTACX_site3309] | 8.82 ± 0.3
34 | AATGTGCCCACGCGTACACACAAAAAAAGAAAAAAA [CACACA_site2003] | 8.35 ± 0.38
35 | CATACATAGAAACACACACACACACCCACCCACAAA [CACACA_site494] | 9.07 ± 0.64
36 | GGATAAGATGTATATACACACAATTTAAAAAAATAA [CACACA_site910] | 8.44 ± 0.38
37 | GTGTAATTTATTGTGTTGCACTTTTTTTTTTTTTTT [GTGCAC_site9644] | 8.7 ± 0.26
38 | AATACAATTTTTAACACACACACAATAATACAGATA [CACACA_site4823] | 8.79 ± 0.56
39 | TTAATATAGGAATATGCACACATATATACATACATA [CACACA_site8432] | 8.38 ± 0.23
40 | AAGATAGACTCATATGCATGCATTCACATACCAACA [TGCATGCA_site179] | 9.95 ± 0.4
41 | TGATGGGACATAAATATTGAGATGATCATAAGATAA [TGCATGCA_negctrl_site276] | 8.7 ± 0.46
42 | TATATCATAAAAAATTGTACATATATATATTATATA [XGTACX_site6726] | 8.35 ± 0.28
43 | AAAGATAATATATGCACACATATAAATATATAAATA [CACACA_site3477] | 8.45 ± 0.34
44 | TATTTATTATATAAATGTACATAATATATGTATGTC [XGTACX_site2815] | 8.4 ± 0.36

Row | Sequence | gcPBM binding intensity (ln)
45 | AAAAAAAAAAAAAGTACACACTTTTGCGTACAAGTA [CACACA_site5672] | 8.37 ± 0.36
46 | AAATATAATTTGCGATGTACACATATATATTTATTT [XGTACX_site1568] | 8.5 ± 0.42
47 | TGAAATGATATATAAACACACATATATAAATATGTA [CACACA_site7616] | 8.18 ± 0.42
48 | AAGAAAAAAAAAAAAAAAAAAAAAAAAAATTTATGA [TGCATGCA_negctrl_site294] | 7.83 ± 0.66
49 | CAGTTATTTTAATGTGGTACACAATTTTAAAATTAT [XGTACX_site8571] | 8.31 ± 0.3
50 | AATTTTATAAAAAGTAGTACATATCAAACACCTTGA [XGTACX_site2297] | 8.72 ± 0.38
51 | TACCTATACCTATACACACACACACGGAAATAAATA [CACACA_site6750] | 8.87 ± 0.5
52 | ATATAAAATGAACATAGTACTTTTTATATATTTTAA [XGTACX_site7461] | 8.05 ± 0.36
53 | TGACTTTTTTTTTTTTTTTTTTTTTTTTATCTTTTT [CACACA_negctrl_site481] | 8 ± 0.49
54 | TTATGATTATAACGTTTTGACATTAGGCATATATAT [CACACA_negctrl_site1396] | 8.45 ± 0.51
55 | TACCCAAAGTTACATACACACTAATATTTACACCAT [CACACA_site4709] | 8.64 ± 0.47
56 | GATGTTCATCACTACACACACAAAGAAATATAAATA [CACACA_site7294] | 8.65 ± 0.69
57 | ATATGAAGTTATATAGTGCACATGTACAACCAAATC [GTGCAC_site9974] | 9.12 ± 0.24
58 | TAATAATAGTGAGAGTGTACTTTAAATAAAATATAT [XGTACX_site2850] | 8.28 ± 0.23
59 | TTCTATATATATATAGACAAACGATAAAATAAAAAA [GTGCAC_negctrl_site142] | 8.8 ± 0.4
60 | AGAAAAGAAATTAGTTGTACTCTGATGAATTATCCT [XGTACX_site6284] | 8.31 ± 0.33
61 | ATAATATTATACTTTGCACACATCTGAAATGACATA [CACACA_site3952] | 8.94 ± 0.23
62 | TACAATTTGATATATACACACAAATAAATTATGCTT [CACACA_site6534] | 8.13 ± 0.31
63 | AAAAGTACAATATATATGTATGTGTATAGAATGGTT [TGCATGCA_negctrl_site76] | 8.94 ± 0.43
64 | AAAAAACAGACATACACACACACACCCATATATATA [CACACA_site3392] | 8.79 ± 0.38
65 | TTTGATAAAATTGATATCCTATAATTATATAAATAA [GTGCAC_negctrl_site317] | 8.04 ± 0.46
66 | GATAAAATAAAAGTGGGTACTTAAATATATATATAA [XGTACX_site8457] | 8.48 ± 0.42

Row | Sequence | gcPBM binding intensity (ln)
67 | TAATATTATTATTTTACACACTTTTTTCCTTTTATC [CACACA_site2457] | 8.66 ± 0.41
68 | AAAGAATTTAAATATTGTACGCAATATATAAAAAAA [XGTACX_site7616] | 8.68 ± 0.24
69 | TGTATGTATAAAAACGCATGTATGTATTTTACAATA [TGCATGCA_site767] | 8.42 ± 0.41
70 | ATGTATATATATATATGTACTAATTAGTAGTTTACG [XGTACX_site6272] | 8.91 ± 0.4
71 | AAAATTAAAAATAACACACACATATATATATTTATA [CACACA_site2776] | 8.43 ± 0.39
72 | GATATTTTTTTCGAAAGTACAAAAAAAAATATTTCC [XGTACX_site4389] | 8.34 ± 0.23
73 | ATATATATACCAAGTAGTACATTCTACAACTAATGT [XGTACX_site8653] | 8.53 ± 0.2
74 | TACTAAGAATTAATATAACAAAATAAAAAAAAAAAA [XGTACX_negctrl_site346] | 8.31 ± 0.42
75 | ATACAGATATATAATACACACATAAATGTAACATTT [CACACA_site5864] | 8.66 ± 0.45
76 | TAGATACATACACGCACACACATATATATATATATA [CACACA_site12] | 10.2 ± 0.29
77 | AATGTACGTTTTATAACACACACACTAATAAAAAAA [CACACA_site9286] | 8.63 ± 0.39
78 | CCACATTAAAAAAAAACACACATATATTATAGATAT [CACACA_site6662] | 8.55 ± 0.49
79 | ATCTTCAAAAATATTAGTACACATGTATCATGAATT [XGTACX_site3872] | 8.62 ± 0.24
80 | TTTATTTGTAACGGTTGTACTTGTATATCATTATGA [XGTACX_site4281] | 8.67 ± 0.3
81 | TAGTGATATAATTATGTGCACTTAATACAGGTCGAT | 9.09 ± 0.12
82 | CTTAAATTTAAGTTCACACATATTGGTCATTTATAT [CACACA_site5006] | 8.6 ± 0.5
83 | CACTAAAATAGACACACACACACACGGATATAAATA [CACACA_site7873] | 8.78 ± 0.58
84 | AATTATATGCTTAATACGCACACGGGAAAAAAAAAA [CACACA_site1376] | 8.65 ± 0.39
85 | TTTTCAAAAATATACACACACATAAATATCTGTATA [CACACA_site4586] | 8.22 ± 0.39
86 | TAAATAAAAAAAAATCGTACATATATTTTATATATG [XGTACX_site3293] | 8.12 ± 0.4
87 | TATTTACATTTTAGTAGTACATATATGTATATATAT [XGTACX_site6839] | 8.57 ± 0.24
88 | TCGTAATAATAGTTGAGTACGCACTAATATGTCAAT [XGTACX_site643] | 8.87 ± 0.38
